The values below come from the RNAGym collection of RNA variant scans (doi:10.1101/gad.245936.114).

Variants at the background level are over-represented here. Some results are limits rather than exact numbers.

First the molecules themselves.
B1: tRNA (parent)
chain: CUCUCGGUAGCCAAGUUGGUUUAAGGCGCAAGACUUUAAUUUAUCACUACGAAAUCUUGAGAUCGGGCGUUCGACUCGCCCCCGGGAGAUUUUUUCCUCGAGCAA

The data set covers variants of B1. Kind of data set: nonsense suppression (GFP-seq) (ratio to wild type); higher = more function; SUP4oc tRNA, yeast GFP reporter sort-seq. The gist of the method: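 Yeast carrying genome-integrated SUP4oc tRNA variants from a library with ~3% random mutations were grown in raffinose/galactose medium with 80 mg/L adenine. Each strain also carried a galactose-driven GFP ochre reporter and RFP. Cells were sorted into GFP/RFP bins, and each bin was Illumina-sequenced (phred ≥30). Nonsense suppression (GFPSEQ) is the bin median GFP/RFP, weighted by each variant's estimated cell share per bin, relative to wild-type SUP4oc; variants needed ≥100 reads and ≥30 cells.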
With C1G A24C G26U, the nonsense suppression was not above 0.026.

Regarding G15C U76A, the nonsense suppression was not above 0.026.

With C3G U20C, the nonsense suppression was determined as 0.0788.

As for C3A C29A U58G A87G, the nonsense suppression is not above 0.026.

For C12A G18C, the nonsense suppression was not above 0.026.

Consider U16A A33C, for which the nonsense suppression was not above 0.026.

As to U20G A54G G73U G84C, the nonsense suppression is not above 0.026.

In the case of G28A C82U, the nonsense suppression was 1.15.

In the case of A9G U17C U22C, the nonsense suppression is 0.133.

Regarding U20A G66U, the nonsense suppression is not above 0.026.

For the variant U8A C29U, the nonsense suppression was not above 0.026.

As for A31U U58G G86A, the nonsense suppression is not above 0.026.

For the variant A33G A87G G88A, the nonsense suppression is not above 0.026.

On to U22G G32A G59U G88C, for which the nonsense suppression was not above 0.026.

As to G7A G59A U76C G78A C82A G88U, the nonsense suppression was not above 0.026.

On to U17G A23U U70G, for which the nonsense suppression is not above 0.026.

Regarding U4A G10U C12A, the nonsense suppression is not above 0.026.

On to C12G C29G G65C, for which the nonsense suppression is not above 0.026.

Regarding G59A G66U G73A, the nonsense suppression was not above 0.026.

With C1G A30C, the nonsense suppression is not above 0.026.

For C1A U22G G25U, the nonsense suppression is not above 0.026.

U16G U57G U63C G78A C83G: the nonsense suppression is not above 0.026.

Consider A9U A13U A24G, for which the nonsense suppression is 0.212.

In the case of U4G U22A, the nonsense suppression amounted to 0.216.

As for C12A A13C C27U, the nonsense suppression was not above 0.026.

Regarding U58C G59C, the nonsense suppression is not above 0.026.

With U4G U8A G19A U57C, the nonsense suppression is not above 0.026.

Take A31C A60U C75A: the nonsense suppression was 1.23.

For the variant U70C G84U, the nonsense suppression is not above 0.026.

Turning to C3G A33C G59A A74C, the nonsense suppression is not above 0.026.

In the case of U20C C68A A74G, the nonsense suppression is not above 0.026.

As to C29A U71A, the nonsense suppression is not above 0.026.

For the variant U4A C11A G86U, the nonsense suppression was not above 0.026.

Regarding U71G G84A, the nonsense suppression is not above 0.026.

G19U G73U: the nonsense suppression is not above 0.026.

As for C1G G59A G65U, the nonsense suppression is not above 0.026.

In the case of A9G C11G A31G G61A G86A, the nonsense suppression was not above 0.026.

In the case of G10U C29G, the nonsense suppression is not above 0.026.

A9G C11A U57C C75A G78C: the nonsense suppression is not above 0.026.

Turning to U17A A31U G66A G67C, the nonsense suppression is not above 0.026.

As for U21G A60G A87C, the nonsense suppression was not above 0.026.

U16C U20C U70A: the nonsense suppression is not above 0.026.

In the case of C3U C27U U76C G88C, the nonsense suppression was not above 0.026.

As for C29G A89G, the nonsense suppression is not above 0.026.

With C29G U63A A74G G84A, the nonsense suppression is not above 0.026.

Turning to C3U G25A C29U A60C, the nonsense suppression was not above 0.026.

As to C80U G85A, the nonsense suppression was 0.733.

In the case of U2A G7U G26U A31G G65C C72G, the nonsense suppression was not above 0.026.

Regarding U8A A13U A60G A74C, the nonsense suppression was not above 0.026.

In the case of U17A G26U A89G, the nonsense suppression is not above 0.026.

Take G6A A24C A31G C64U: the nonsense suppression is not above 0.026.

On to U71G C72G G73A, for which the nonsense suppression was not above 0.026.

As to C27U U76G C81G, the nonsense suppression was not above 0.026.

Take U2A G66C A89G: the nonsense suppression is not above 0.026.

In the case of U55A U70A, the nonsense suppression was not above 0.026.

In the case of U8G G18U U21G C56U G61C, the nonsense suppression is not above 0.026.

As to A13C C27G, the nonsense suppression is not above 0.026.

As to C29G G32A G67U C75A, the nonsense suppression was not above 0.026.

Regarding U2A U17G G18U A24C C27G G59U G86A, the nonsense suppression was not above 0.026.

Turning to A31U G88C, the nonsense suppression is not above 0.026.

For the variant C5U U55G, the nonsense suppression is not above 0.026.

As for C11U A14U U16A, the nonsense suppression was not above 0.026.

As for A33C G67A, the nonsense suppression is not above 0.026.

Consider U21A G32U U71G G85C, for which the nonsense suppression was not above 0.026.

C1U G15C G26C: the nonsense suppression was not above 0.026.

For U71A U76C, the nonsense suppression was not above 0.026.

Regarding C11G U16A A24G A54C A74G, the nonsense suppression is not above 0.026.

As for A14U U55C, the nonsense suppression was not above 0.026.

On to U20G A23C C56A, for which the nonsense suppression is not above 0.026.

In the case of A33C A87C, the nonsense suppression was not above 0.026.

G15C A24G C77G: the nonsense suppression is not above 0.026.

As to C1A A13C U57C, the nonsense suppression is not above 0.026.

As to A9C U21A A24G C77G, the nonsense suppression was not above 0.026.

For A23G A24U U57A A60C G85A, the nonsense suppression is not above 0.026.

For A13C C72U C81U, the nonsense suppression is not above 0.026.

In the case of C1U A13C A30C C77U A89C, the nonsense suppression is not above 0.026.

For the variant A54C G84C, the nonsense suppression was not above 0.026.

Regarding U57C U71C, the nonsense suppression was not above 0.026.

For C3A G66U G67U A87G, the nonsense suppression is not above 0.026.

G25C A30U: the nonsense suppression was 0.0299.

Regarding U17C U35G, the nonsense suppression is not above 0.026.

Consider G10U C68U, for which the nonsense suppression was not above 0.026.

Regarding C11U C29G U76G, the nonsense suppression is not above 0.026.

As to G15C A87G, the nonsense suppression was not above 0.026.

Turning to U8G A62C C68G, the nonsense suppression was not above 0.026.

Take G66A A89U: the nonsense suppression was not above 0.026.

For the variant A60C G84U G85U, the nonsense suppression is not above 0.026.

For U55C U58C G59C U63C, the nonsense suppression was not above 0.026.

C34G A62C U63C: the nonsense suppression was not above 0.026.

As to C83U G88U A89C, the nonsense suppression was not above 0.026.

As for U57C G66U U76A, the nonsense suppression is not above 0.026.

Take C11A G84U: the nonsense suppression was not above 0.026.

On to A60G G78A, for which the nonsense suppression came to 0.0542.

For G67A U76A G85U, the nonsense suppression was not above 0.026.

On to U20C U21C, for which the nonsense suppression was found to be 1.15.

Consider C5G A60G, for which the nonsense suppression is not above 0.026.

As to G28A C56A, the nonsense suppression was not above 0.026.

With A23U G67A, the nonsense suppression is not above 0.026.

Take A24G C29U C34A G73A: the nonsense suppression is not above 0.026.

For the variant U35A C77U, the nonsense suppression is not above 0.026.

Take A9C G15U G28U C79A: the nonsense suppression is not above 0.026.

Turning to A13G U17A A24U, the nonsense suppression is not above 0.026.

With C34U C77G C79G A89G, the nonsense suppression was not above 0.026.

As to C11U C72G A74U, the nonsense suppression is not above 0.026.

Regarding G32U A33G U55C C79U, the nonsense suppression is not above 0.026.

As to U57A U58G, the nonsense suppression was not above 0.026.

On to G7U A87U, for which the nonsense suppression was not above 0.026.

For G10C A30G A31C G65A, the nonsense suppression is not above 0.026.

For the variant C1A U57C, the nonsense suppression was not above 0.026.

As for C11A G19C A30G C34G C83A, the nonsense suppression is not above 0.026.

Consider G25C C79G, for which the nonsense suppression was not above 0.026.

Take A23U C34U G84A: the nonsense suppression is not above 0.026.

For A14U U22C G88A, the nonsense suppression is not above 0.026.

On to A60U U71C, for which the nonsense suppression is not above 0.026.

With A24U U57C, the nonsense suppression was not above 0.026.

For A9U A14C U63A G78U G84A, the nonsense suppression is not above 0.026.

As to U16C G26A, the nonsense suppression was not above 0.026.

For U16C G26U, the nonsense suppression is not above 0.026.

With A9G U70C C80U, the nonsense suppression was not above 0.026.

Take C56A U63G G67C U76C: the nonsense suppression was not above 0.026.

With C1A A23C C72G, the nonsense suppression is not above 0.026.

Consider C27U A33G G69C G86U, for which the nonsense suppression was not above 0.026.

In the case of U8A U20C C64G, the nonsense suppression is not above 0.026.

For the variant C1G G18U G85U, the nonsense suppression is not above 0.026.

Turning to C1G U22G C56G C82A G84A A89U, the nonsense suppression is not above 0.026.

On to G65A G69A C80U, for which the nonsense suppression was not above 0.026.

With U35A U70C, the nonsense suppression is not above 0.026.

Turning to A24G G69C, the nonsense suppression was not above 0.026.

With C29A G32C G85C, the nonsense suppression is not above 0.026.

Consider U22G A54U, for which the nonsense suppression worked out at 1.12.

Turning to G7U U63A G65U, the nonsense suppression was not above 0.026.

On to A31G U71G, for which the nonsense suppression was not above 0.026.

Turning to A9C G19C A30C A33G U57G, the nonsense suppression is not above 0.026.

For the variant U2G G7U C27A G28U, the nonsense suppression was not above 0.026.

U8G U22G U35A: the nonsense suppression is not above 0.026.

Regarding U4G U17C U21A G67U, the nonsense suppression is not above 0.026.

Take U8G C29G A33G G86A A87C: the nonsense suppression is not above 0.026.

Turning to A9G G19U A31C G78U, the nonsense suppression was not above 0.026.

As to U2G A23U, the nonsense suppression was not above 0.026.

For U17C A30G A31C C68A, the nonsense suppression was not above 0.026.

As for U35G G78C, the nonsense suppression is not above 0.026.

Regarding A14G U21A C34G, the nonsense suppression is not above 0.026.

With C11G G66U, the nonsense suppression is not above 0.026.

On to G6U A33C, for which the nonsense suppression is not above 0.026.

Take G25C G78C C79G G86A: the nonsense suppression is not above 0.026.

C27G C34A: the nonsense suppression was not above 0.026.

As to C1A A9G C27G G67C, the nonsense suppression is not above 0.026.

As to A9U A13U, the nonsense suppression worked out at 0.819.

For the variant U4C A23G U58A G86C, the nonsense suppression was not above 0.026.

Turning to A9G G10C G32U U58A, the nonsense suppression was not above 0.026.

As to C1G C68U A74U, the nonsense suppression is not above 0.026.

Regarding U17G G65C, the nonsense suppression was not above 0.026.

Consider C34U A62C G73U, for which the nonsense suppression was not above 0.026.

Turning to U21G C68A A74G C81A, the nonsense suppression was not above 0.026.

G7A A31C U57C G69U C83A: the nonsense suppression was not above 0.026.

As for U20C U55C, the nonsense suppression turned out to be 0.0996.

Regarding U57A G61C G86C, the nonsense suppression is not above 0.026.

For U16G A54C C81U, the nonsense suppression was 0.0601.

U2G C11U: the nonsense suppression is not above 0.026.

Regarding G26U U70C, the nonsense suppression was not above 0.026.

On to U57C U58C G59A G67U, for which the nonsense suppression is not above 0.026.

On to U8G C12G, for which the nonsense suppression was not above 0.026.

For the variant U2C C81A, the nonsense suppression was not above 0.026.

Consider C5A U8G, for which the nonsense suppression was not above 0.026.

Consider C34U A54C G73C U76G, for which the nonsense suppression is not above 0.026.

Turning to U16C A62C, the nonsense suppression was not above 0.026.

On to A30C G73C, for which the nonsense suppression was not above 0.026.
